Measured values from PubChem BioAssay AID624418 (National Center for Advancing Translational Sciences (NCATS), 2012).
Screen size: about 410,000 compounds; about 530 (0.13%) were called active. The inconclusive results got no clear call from the source; some entries with a clear call stand among them for comparison. Calls follow the shape of the dose curve; as a rule, active = well fitted inhibition curve with a large enough effect; inconclusive = small, poorly fitted or top-dose-only effect, or another doubt; inactive = no such curve, though single readings can be large or run the other way. Potencies beside an inconclusive call are fits to weak or partial responses and may not hold up.

Experiment: qHTS of GLP-1 Receptor Inverse Agonists: Cytotox Screen
Conditions: HEK293 cAMP-luciferase reporter cells, luminescence, 24 h; series mostly up to 38.3 µM
How it was run: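 Quantitative HTS format, 1536 wells, 200 cells/uL seeded. Compounds: 23 nL, 24 h, 37 °C. Detection: luciferase reagent, luminescence at 12 min RT; decreased signal taken as cytotoxic.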
Potency is read from the fitted curve at half-maximal effect.

SMILES | Potency
CCN1C(=O)[C@H]2[C@@H](c3ccc(-c4ccc(OC)cc4)cc3)N[C@@](CC(C)C)(C(=O)OC)[C@H]2C1=O | inconclusive: 6.31 µM [inhibitor, full curve, poor fit]
Cc1cc(C)nc(N/N=C/c2ccccc2OCc2ccc(Cl)cc2)n1 | inconclusive: 28.2 µM [inhibitor, single point]
CC(c1ccccc1)N1CCC(CNC(=S)Nc2cccc(Cl)c2)C1 (stereo not drawn) | inconclusive: 28.2 µM [inhibitor, single point]
Cc1cc(Cl)ccc1NC(=S)Nc1ccccn1 | inconclusive: 2.51 µM [inhibitor, full curve]
O=C(N/N=C/C=C/c1ccccc1)c1n[nH]c2c1CCC2 | inconclusive: 1 µM [inhibitor, full curve]
CCO[C@H]1OC(C(=O)O)=C[C@@H](c2ccc3c(c2)OCO3)[C@@H]1CCCO | inconclusive: 10 µM [inhibitor, partial curve, poor fit]
C[C@H](NC(=O)[C@@H]1Cc2ccccc2CN1)C(=O)Nc1ccc2c(c1)OCCO2 | inactive
O=C1NC2(C=Cc3c(ccc4ccccc34)O2)Oc2ccccc21 (stereo not drawn) | inconclusive: 28.2 µM [inhibitor, single point]
CCn1c2ccccc2c2cc(NC(=O)c3cc(OC)cc(OC)c3)ccc21 | inconclusive: 0.794 µM [inhibitor, full curve, poor fit]
COc1ccc(OC)c(C(=O)c2c(C)oc3cc(Br)c(O)c(CN(C)C)c23)c1 | inconclusive: 20 µM [inhibitor, single point]
CN1CCN(C(=S)NC(=O)/C=C/c2cccs2)CC1 | inactive
Cc1[nH]c2c(C)cccc2c1CCNC(=O)c1ccc2c(c1[N+](=O)[O-])C(=O)c1ccccc1C2=O | inconclusive: 1.78 µM [inhibitor, full curve, poor fit]
CC(C)NC(=O)C1CCC(Cn2c(=O)c3sccc3n(CC(=O)N3CCCC3)c2=O)CC1 (stereo not drawn) | inactive
COc1ccc(CCNC(=O)CSc2nnnn2C)cc1OC | inactive
CCCOc1ccc(NC(=O)CC2C(=O)N(c3ccccc3)C(=O)N2Cc2ccc(F)cc2)cc1 (stereo not drawn) | inactive
COc1ccc(C)cc1NC(=O)Cc1csc(NC(=O)Nc2ccccc2OC)n1 | inconclusive: 6.31 µM [inhibitor, partial curve, poor fit]
Cc1ccccc1C(=O)Nc1ccccc1OCc1cc(=O)n2ccccc2n1 | inactive
Nc1nc(NC(=O)C(Cl)(Cl)Cl)nn1-c1ccccc1 | inconclusive: 10 µM [inhibitor, partial curve, poor fit]
